Experimental data: the supplement of paper PMC8728848
The other results are listed elsewhere or left out.

Experiments:
Test in all cases: glycan array binding signal (z-score within array); higher = stronger binding
Details in all cases: glycan notation: IUPAC condensed, linker removed; mutation: W10H
[1] = target: Neu5Ac(a2-6)Gal(b1-4)GlcNAc(b1-6)[Gal(b1-3)GlcNAc(b1-3)]Gal(b1-4)Glc
Method in brief: (§1)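 Arrays were curated from the Consortium for Functional Glycomics database, 3228 in total, and kept only where the protein sequence was available. Binding is expressed as a within-array Z-score. This score was averaged across arrays of the same protein sequence at different concentrations or buffers and across linkers, and negative values can be read as non-binding.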

[2] = target: Neu5Ac(a2-6)Gal(b1-4)GlcNAc(b1-6)[Gal(b1-3)]GalNAc
Method in brief: as §1

[3] = target: Neu5Ac(a2-6)Gal(b1-4)GlcNAc6S
Method in brief: as §1

Neu5Ac(a2-6)GalNAc = target: Neu5Ac(a2-6)GalNAc
Method in brief: as §1

[4] = target: Neu5Ac(a2-6)GalNAc(b1-4)GlcNAc
Method in brief: as §1

[5] = target: Neu5Ac(a2-6)GalNAc(b1-4)GlcNAc6S
Method in brief: as §1

[6] = target: Neu5Ac(a2-6)GlcNAc(b1-4)GlcNAc
Method in brief: as §1

[7] = target: Neu5Ac(a2-6)GlcNAc(b1-4)GlcNAc(b1-4)GlcNAc
Method in brief: as §1

Neu5Ac(a2-8)Neu5Ac = target: Neu5Ac(a2-8)Neu5Ac
Method in brief: as §1

[8] = target: Neu5Ac(a2-8)Neu5Ac(a2-3)Gal(b1-3)GalNAc(b1-4)[Neu5Ac(a2-3)]Gal(b1-4)Glc
Method in brief: as §1

[9] = target: Neu5Ac(a2-8)Neu5Ac(a2-3)Gal(b1-3)GalNAc(b1-4)[Neu5Ac(a2-8)Neu5Ac(a2-3)]Gal(b1-4)Glc
Method in brief: as §1

[10] = target: Neu5Ac(a2-8)Neu5Ac(a2-3)Gal(b1-4)Glc
Method in brief: as §1

[11] = target: Neu5Ac(a2-8)Neu5Ac(a2-3)Gal(b1-4)GlcNAc
Method in brief: as §1

[12] = target: Neu5Ac(a2-8)Neu5Ac(a2-3)[Gal(b1-3)GalNAc(b1-4)]Gal(b1-4)Glc
Method in brief: as §1

[13] = target: Neu5Ac(a2-8)Neu5Ac(a2-3)[GalNAc(b1-4)]Gal(b1-4)Glc
Method in brief: as §1

[14] = target: Neu5Ac(a2-8)Neu5Ac(a2-8)Neu5Ac
Method in brief: as §1

[15] = target: Neu5Ac(a2-8)Neu5Ac(a2-8)Neu5Ac(a2-3)Gal(b1-4)Glc
Method in brief: as §1

[16] = target: Neu5Ac(a2-8)Neu5Ac(a2-8)Neu5Ac(a2-3)[Gal(b1-3)GalNAc(b1-4)]Gal(b1-4)Glc
Method in brief: as §1

[17] = target: Neu5Ac(a2-8)Neu5Ac(a2-8)Neu5Ac(a2-3)[GalNAc(b1-4)]Gal(b1-4)Glc
Method in brief: as §1

[18] = target: Neu5Ac(a2-8)Neu5Ac(a2-8)Neu5Ac(a2-8)Neu5Ac(a2-3)[GalNAc(b1-4)]Gal(b1-4)Glc
Method in brief: as §1

[19] = target: Neu5Ac(a2-8)Neu5Gc(a2-3)Gal(b1-4)GlcNAc
Method in brief: as §1

[20] = target: Neu5Ac(b2-6)Gal(b1-4)GlcNAc
Method in brief: as §1

Neu5Ac(b2-6)GalNAc = target: Neu5Ac(b2-6)GalNAc
Method in brief: as §1

[21] = target: Neu5Ac9Ac(a2-3)Gal(b1-3)GlcNAc
Method in brief: as §1

[22] = target: Neu5Ac9Ac(a2-3)Gal(b1-4)GlcNAc
Method in brief: as §1

[23] = target: Neu5Ac9Ac(a2-6)Gal(b1-4)GlcNAc
Method in brief: as §1

[24] = target: Neu5Gc(a2-3)Gal(b1-3)GlcNAc
Method in brief: as §1

[25] = target: Neu5Gc(a2-3)Gal(b1-3)[Fuc(a1-4)]GlcNAc
Method in brief: as §1

Neu5Gc(a2-3)Gal(b1-4)Glc = target: Neu5Gc(a2-3)Gal(b1-4)Glc
Method in brief: as §1

[26] = target: Neu5Gc(a2-3)Gal(b1-4)GlcNAc
Method in brief: as §1

[27] = target: Neu5Gc(a2-3)Gal(b1-4)GlcNAc(b1-3)Gal(b1-4)GlcNAc(b1-2)Man(a1-3)[Neu5Gc(a2-3)Gal(b1-4)GlcNAc(b1-3)Gal(b1-4)GlcNAc(b1-2)Man(a1-6)]Man(b1-4)GlcNAc(b1-4)GlcNAc
Method in brief: as §1

[28] = target: Neu5Gc(a2-3)Gal(b1-4)[Fuc(a1-3)]GlcNAc
Method in brief: as §1

[29] = target: Neu5Gc(a2-6)Gal(b1-4)GlcNAc
Method in brief: as §1

Neu5Gc(a2-6)GalNAc = target: Neu5Gc(a2-6)GalNAc
Method in brief: as §1

[30] = target: Neu5Gc(a2-8)Neu5Ac(a2-3)Gal(b1-4)GlcNAc
Method in brief: as §1

[31] = target: Neu5Gc(a2-8)Neu5Gc(a2-3)Gal(b1-4)GlcNAc
Method in brief: as §1

[32] = target: Neu5Gc(a2-8)Neu5Gc(a2-3)Gal(b1-4)GlcNAc(b1-3)Gal(b1-4)GlcNAc
Method in brief: as §1

[33] = target: Neu5Gc(a2-8)Neu5Gc(a2-6)Gal(b1-4)GlcNAc
Method in brief: as §1

[34] = target: Neu5Gc(b2-6)Gal(b1-4)GlcNAc
Method in brief: as §1

B1: Banana lectin (Musa acuminata) (protein)
chain: MNGAIKVGAHGGNGGSAFDMGPAYRIISVKIFSGDVVDGVDVTFTYYGKTETRHYGGSGGTPHEIVLQEGEYLVGMAGEVANYHGAVVLGKLGFSTNKKAYGPFGNTGGTPFSLPIAAGKISGFFGRGGKFLDAIGVYLEPLEHHHHHH
With B1 the “glycan array binding signal (z-score)” value [1] was -0.184, the “glycan array binding signal (z-score)” value [2] was -0.155 and the “glycan array binding signal (z-score)” value [3] was -0.161. The “glycan array binding signal (z-score)” value (Neu5Ac(a2-6)GalNAc) was -0.17, the “glycan array binding signal (z-score)” value [4] was -0.19 and the “glycan array binding signal (z-score)” value [5] was -0.193. For the same binder, the “glycan array binding signal (z-score)” value [6] was -0.158, the “glycan array binding signal (z-score)” value [7] was -0.197 and the “glycan array binding signal (z-score)” value (Neu5Ac(a2-8)Neu5Ac) was -0.183. For the same binder, the “glycan array binding signal (z-score)” value [8] was -0.127, the “glycan array binding signal (z-score)” value [9] was -0.2 and the “glycan array binding signal (z-score)” value [10] was -0.19. For the same binder, the “glycan array binding signal (z-score)” value [11] was -0.203, the “glycan array binding signal (z-score)” value [12] was -0.181 and the “glycan array binding signal (z-score)” value [13] was -0.146. For the same binder, the “glycan array binding signal (z-score)” value [14] was -0.169, the “glycan array binding signal (z-score)” value [15] was -0.159 and the “glycan array binding signal (z-score)” value [16] was -0.14. The “glycan array binding signal (z-score)” value [17] was -0.113, the “glycan array binding signal (z-score)” value [18] was -0.153 and the “glycan array binding signal (z-score)” value [19] was -0.16. For the same binder, the “glycan array binding signal (z-score)” value [20] was -0.188, the “glycan array binding signal (z-score)” value (Neu5Ac(b2-6)GalNAc) was -0.156 and the “glycan array binding signal (z-score)” value [21] was -0.187. For the same binder, the “glycan array binding signal (z-score)” value [22] was -0.184, the “glycan array binding signal (z-score)” value [23] was -0.181 and the “glycan array binding signal (z-score)” value [24] was -0.168. The “glycan array binding signal (z-score)” value [25] was -0.172, the “glycan array binding signal (z-score)” value (Neu5Gc(a2-3)Gal(b1-4)Glc) was -0.171 and the “glycan array binding signal (z-score)” value [26] was -0.193. For the same binder, the “glycan array binding signal (z-score)” value [27] was -0.162, the “glycan array binding signal (z-score)” value [28] was -0.178 and the “glycan array binding signal (z-score)” value [29] was -0.12. The “glycan array binding signal (z-score)” value (Neu5Gc(a2-6)GalNAc) was -0.166, the “glycan array binding signal (z-score)” value [30] was -0.194 and the “glycan array binding signal (z-score)” value [31] was -0.149. For the same binder, the “glycan array binding signal (z-score)” value [32] was -0.163, the “glycan array binding signal (z-score)” value [33] was -0.162 and the “glycan array binding signal (z-score)” value [34] was -0.185.
